This is an account of results in PMC4336329 (PLoS ONE, 2015).

Molecules are shown by their SMILES. Screen size: about 310,000 compounds; about 2,200 (0.71%) showed an effect of 50% or more. The effect is printed as a negative number. Some of the results follow.

The target of this assay is human ether-à-go-go-related gene (hERG) potassium channel (human, UniProt Q12809). Put plainly: primary screen, population patch clamp on CHO cells stably expressing hERG.
Chain of human ether-à-go-go-related gene (hERG) potassium channel (Q12809 whole entry, looked up): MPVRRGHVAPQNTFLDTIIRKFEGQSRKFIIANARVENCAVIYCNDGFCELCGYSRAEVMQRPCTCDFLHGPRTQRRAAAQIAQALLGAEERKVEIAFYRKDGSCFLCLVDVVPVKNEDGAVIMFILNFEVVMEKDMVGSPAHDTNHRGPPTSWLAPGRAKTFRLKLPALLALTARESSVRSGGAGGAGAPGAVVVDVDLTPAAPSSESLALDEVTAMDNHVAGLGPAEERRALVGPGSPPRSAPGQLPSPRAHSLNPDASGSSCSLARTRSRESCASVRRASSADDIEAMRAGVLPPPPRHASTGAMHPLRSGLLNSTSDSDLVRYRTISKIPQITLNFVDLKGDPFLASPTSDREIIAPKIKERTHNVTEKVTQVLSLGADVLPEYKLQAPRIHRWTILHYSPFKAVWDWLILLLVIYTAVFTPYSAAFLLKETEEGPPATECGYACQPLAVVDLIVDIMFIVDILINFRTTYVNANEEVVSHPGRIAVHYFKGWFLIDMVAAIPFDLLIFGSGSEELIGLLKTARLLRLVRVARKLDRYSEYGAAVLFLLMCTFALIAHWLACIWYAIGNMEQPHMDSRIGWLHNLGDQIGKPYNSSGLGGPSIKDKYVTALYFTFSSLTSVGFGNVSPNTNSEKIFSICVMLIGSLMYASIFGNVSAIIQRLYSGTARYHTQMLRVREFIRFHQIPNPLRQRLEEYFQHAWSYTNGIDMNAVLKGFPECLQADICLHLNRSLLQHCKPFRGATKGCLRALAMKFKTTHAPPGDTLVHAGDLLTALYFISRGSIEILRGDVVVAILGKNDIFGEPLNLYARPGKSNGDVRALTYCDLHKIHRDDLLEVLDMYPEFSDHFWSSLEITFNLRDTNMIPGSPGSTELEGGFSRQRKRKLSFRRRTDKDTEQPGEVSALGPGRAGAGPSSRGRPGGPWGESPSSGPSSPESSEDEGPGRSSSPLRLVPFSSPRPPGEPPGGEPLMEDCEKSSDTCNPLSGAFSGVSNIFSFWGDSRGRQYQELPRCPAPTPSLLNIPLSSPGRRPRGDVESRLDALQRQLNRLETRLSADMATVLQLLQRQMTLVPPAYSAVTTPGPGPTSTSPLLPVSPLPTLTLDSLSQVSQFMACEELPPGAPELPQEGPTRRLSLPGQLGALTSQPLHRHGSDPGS
Turning to `COc1cccc(/C=C/C(=O)OCC(=O)Nc2ccc3[nH]c(=O)[nH]c3c2)c1OC`, the “hERG current change (%, negative = inhibition) at 1uM” value is recorded as -1.71%. Next, `COc1ccc(CCNC(=O)c2cc(S(=O)(=O)N(C)C)ccc2N2CCCC2)cc1`: 19.3%; `CCOC(=O)C1CCCN(C(=O)c2cc3c(-c4cccc(OC)c4)nn(C)c3s2)C1` (stereo not drawn): 2.57%. As to `N#C/C(=C\c1ccccc1)C(=O)NC1CC1`, the “hERG current change (%, negative = inhibition) at 1uM” value is 12.6%. The value for `COc1ccc(CNC(=O)c2ccc3c(c2)NC(=O)C(C)S3)cc1` (stereo not drawn) was 11.6%; that for `CCOC(=O)c1sc2nc(CSc3ccccc3)nc(NCCN(C)C)c2c1C` was -13.4%.

As for `N#Cc1ccc(C(=O)Nc2ccc(S(=O)(=O)NC3=NCCCCC3)cc2)cc1`, the “hERG current change (%, negative = inhibition) at 1uM” value came out at 6.13%. The value for `c1ccc2c(c1)ccc1nnc(SCc3ccc4c(c3)OCO4)n12` was 6.04%; that for `CSc1nc(=O)n2cc(C)ccc2n1` was 11.3%; that for `CC(C)(C)c1csc(CS(=O)(=O)c2ccccn2)n1` was -2.07%. With `Cc1sc(NC(=O)c2cc(-c3ccc(Cl)cc3)nc3ccccc23)c(C(N)=O)c1C`, the “hERG current change (%, negative = inhibition) at 1uM” value amounted to 8.72%. As to `Cc1ccc(C)c(C(=O)N2CCC(n3nccc3NC(=O)C3CC3)CC2)c1`, the “hERG current change (%, negative = inhibition) at 1uM” value was -0.929%. For the molecule `COc1ccc(F)cc1CN1CCN(C(=O)CCC(=O)Nc2nnc(C3CCCCC3)s2)CC1`, the “hERG current change (%, negative = inhibition) at 1uM” value is listed as 15.7%. The value for `O=C1CC(c2ccccc2)CC(O)=C1C=NCc1ccc(Cl)c(Cl)c1` (stereo not drawn) was 7.52%; that for `Cc1ccc(C(=O)Nc2ccc3c(c2)OCO3)cc1NC(=O)c1ccco1` was 5.58%; that for `COc1cccc(N=C2SC(C(=O)Nc3ccc(F)cc3)CC(=O)N2C)c1` (stereo not drawn) was 4.9%.

With `O=C(NC(=S)Nc1ccc(N2CCOCC2)c(Cl)c1)c1sc2ccccc2c1Cl`, the “hERG current change (%, negative = inhibition) at 1uM” value came out at 4.59%. Next, `Cc1cccc(C(=O)NCc2nnc(SCC(=O)Nc3nnc(C)s3)n2C)c1`: 7.66%; `OCC1(CCCc2ccccc2)CCN(Cc2ccc(F)cc2)CC1`: -25.3%; `Cc1ccc(C2NC(=O)c3c(sc4c3CCN(C)C4)N2)o1` (stereo not drawn): 1%. Next, `COc1cccc(C(=O)Nc2cccc(-c3ccccc3)c2)c1`: 17%; `O=C(COC(=O)c1cncc(Br)c1)NCc1ccc2c(c1)OCO2`: 13.6%.

In the case of `Cc1ccc(NC(=O)c2ccc(-c3nn(C)c(=O)c4ccccc34)cc2)c(C)c1`, the “hERG current change (%, negative = inhibition) at 1uM” value was -3.98%. Turning to `C[n+]1ccccc1N1CCN(c2ccccc2Cl)CC1.[I-]`, the “hERG current change (%, negative = inhibition) at 1uM” value is 5.98%. As to `O=C(OCC(=O)N1CCCC1)c1cncc(Br)c1`, the “hERG current change (%, negative = inhibition) at 1uM” value is reported as 17.2%. Next, `N#Cc1c(NC(=O)C2CC(c3ccccc3O)=NO2)sc2c1CCC2` (stereo not drawn): 3.85%; `O=C(NCc1ccccn1)c1cc(-c2ccc(Cl)cc2)nc2ccccc12`: 3.18%. Next, `COC(=O)Nc1ccc(S(=O)(=O)NCc2ccccn2)cc1`: 3.89%; `CCCN1CCC(NC23CC4CC(CC(C4)C2)C3)CC1`: 18%.

`CCC(Oc1ccc(C)cc1)C(=O)Nc1ccc(S(=O)(=O)Nc2nccs2)cc1` (stereo not drawn): the “hERG current change (%, negative = inhibition) at 1uM” value stood at 10.4%. The value for `O=C(O)CNC(=O)CCn1nnc2ccccc2c1=O` was 9.97%. The value for `CCCCN(CC)Cc1ccc(CNC(=O)Nc2ccc(OCC)cc2)o1` was 0.485%; that for `CC(=O)Nc1ccc(C2=NN(c3ccccc3)C(c3cccs3)C2)cc1` (stereo not drawn) was 22.3%. The value for `Nn1c(SCC(=O)Nc2ccc(F)cc2)nnc1-c1ccccn1` was -16.6%; that for `O=C(NCC1CC1)NC(=O)c1c(F)cccc1Cl` was 11.5%. In the case of `COc1ccc(S(=O)(=O)NCC2CCCN(Cc3ccccc3Cl)C2)cc1` (stereo not drawn), the “hERG current change (%, negative = inhibition) at 1uM” value was determined as 2.59%.

On to `CCOc1ccc(NC(=O)C(C)Sc2nnc(C)n2C)cc1` (stereo not drawn), for which the “hERG current change (%, negative = inhibition) at 1uM” value is -3.53%. The value for `CC(=O)CCc1c(C)[nH]c2ccc(NC(C)=O)cc2c1=O` was 12%. Next, `Cn1c(NC(=O)CC2CCCCC2)cc(=O)n(C)c1=O`: 6.29%. The value for `Cc1cc(=O)c2cc(Br)ccc2[nH]1` was 11.2%; that for `C[N+](C)(CCOc1ccccc1)Cc1ccccc1.O=C(O)c1cc2ccccc2c(Br)c1[O-]` was 7.99%; that for `Cc1ccc(CN(C(=O)c2csnn2)C(C(=O)NC2CCCC2)c2ccc(C)o2)cc1` (stereo not drawn) was 4.17%. In the case of `O=C(Nc1ccc(C(=O)N2CCN(c3ccccc3)CC2)cc1)C1=CSCCO1`, the “hERG current change (%, negative = inhibition) at 1uM” value amounted to 5.72%. In the case of `Cc1cccc(NC(=O)C2CCN(C(=O)[C@@H]3Cc4ccccc4CN3)CC2)c1`, the “hERG current change (%, negative = inhibition) at 1uM” value was -31.3%. Next, `COc1ccc(Cc2nc3ccc(C(=O)NCCSC)cc3o2)cc1`: 9.5%; `O=C(NCc1ccc(F)cc1)c1cccc(NC2=NC3CS(=O)(=O)CC3S2)c1` (stereo not drawn): 0.746%. Next, `COc1ccc(-c2nc3c(c(=O)n(C)c(=O)n3C)n2CC2CC(c3ccccc3)=NO2)cc1OC` (stereo not drawn): 8.48%; `O=C(Nc1ccccc1)N(C1=NCCC1)c1ccc(OC(F)F)cc1`: 1.35%; `Cc1ccc(C)c(CN2C(=O)C3CCCN3c3ccc(S(=O)(=O)N4CCOCC4)cc32)c1` (stereo not drawn): 16%. Next, `Cc1ccccc1S(=O)(=O)Cc1ccc(C(=O)NC2CC2)o1`: 16.2%. As for `COc1ccc2[nH]cc(CCNS(=O)(=O)c3ccc(NC(C)=O)cc3)c2c1`, the “hERG current change (%, negative = inhibition) at 1uM” value amounted to 10.1%. The value for `CNC(=S)N1CCn2cccc2C1c1cc(OC)c(OC)c(OC)c1` (stereo not drawn) was 11.1%; that for `CCCOc1ccc(-c2nc(N3CCN(CC)CC3)c3ccccc3n2)cc1` was 11.2%; that for `CCCCn1c(=O)[nH]c(=O)c2c1nc(-c1ccc(C(F)(F)F)cc1)n2C` was 2.7%. The value for `Cc1cccc(C(=O)NNC(=O)c2ccccc2[N+](=O)[O-])c1` was 10.7%; that for `CC(=O)OCc1cc(=O)n(C)c(=O)n1C` was 16.3%; that for `CCOc1ccc2nc(N3CCCC(C(=O)NCCCN4CCCCC4)C3)sc2c1` (stereo not drawn) was -11.7%.
